# In the supplement of paper PMC12355420:
# Where a name gives a salt, the structure may show the parent alone. The list shows a part of the results. No stated cut-off is given here; in the data, active = 0.5 or less and inactive = the rest. Most values come without repeats; read them as rough.
# Columns and labels:
# Settings in all cases: 50 µM; 24 h
# [1] = tested on: HeLa VPS33A reporter cells; experiment: relative cell viability (CellMask signal) vs DMSO (fraction of DMSO); higher = less cytotoxic;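 further: primary screen of an FDA-approved drug library in HeLa reporter cells in 96-well format, CellMask signal normalized to DMSO-treated wells set as 1, under 0.5 deemed highly cytotoxic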
# [2] = tested on: HeLa VPS33A R498W KI + HA-SDC1-FLAG; experiment: relative GAG core protein HA-SDC1 amount per cell number vs DMSO (fraction of DMSO); higher = more SDC1 (GAG core protein);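 further: HA-SDC1 level read out by In-Cell Western staining with an anti-HA antibody against the N-terminal tag, screening FDA-approved library drugs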
# [3] = tested on: HeLa VPS33A KO + NLuc-VPS33A R498W; experiment: relative mutant VPS33A R498W amount (NanoLuc luminescence) vs DMSO (fraction of DMSO); HeLa model of a glycosaminoglycan (GAG) storage disease; KI is knock-in and KO knock-out; SDC1 is syndecan 1; higher = higher mutant VPS33A level;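 further: screen of an FDA-approved drug library, NanoLuc luminescence read after lysing the treated cells, taken as a measure of mutant VPS33A protein stability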
Structure (SMILES),relative cell viability [1],relative GAG core protein HA-SDC1 amount per cell number [2],relative mutant VPS33A R498W amount [3]
Cn1c(=O)c2c(ncn2CC2OCCO2)n(C)c1=O [Doxofylline],0.935,inactive: 1.02,1.13
CC[C@H](C)C(=O)O[C@H]1CCC=C2C=C[C@H](C)[C@H](CC[C@@H]3C[C@@H](O)CC(=O)O3)[C@H]21 [Mevastatin],0.962,inactive: 0.623,2.09
CN1c2c([nH]c(N)nc2=O)NC[C@@H]1CNc1ccc(C(=O)N[C@@H](CCC(=O)O)C(=O)O)cc1 [Levomefolate calcium],1.08,inactive: 1.38,1.43
CCn1cc(C(=O)O)c(=O)c2cc(F)c(N3CCNCC3)nc21 [Enoxacin (Penetrex)],1.07,inactive: 0.576,0.607
O=C(CCCN1CCC(O)(c2ccc(Cl)cc2)CC1)c1ccc(F)cc1 [Haloperidol],0.944,inactive: 1.05,1.37
Cc1c(N(C)C)c(=O)n(-c2ccccc2)n1C [Amidopyrine],1.07,inactive: 0.812,1.41
C[C@]1(O)C[C@@H](c2nc(-c3ccc4ccc(-c5ccccc5)nc4c3)c3c(N)nccn32)C1 [Linsitinib],1.15,inactive: 0.585,0.278
O=C(O)c1ccncc1 [Isonicotinic acid],1.09,inactive: 0.781,1.12
COCCc1ccc(OCC(O)CNC(C)C)cc1 (configuration not stated) [Metoprolol Succinate],0.989,inactive: 1.08,0.922
CCCc1cc(=O)[nH]c(=S)[nH]1 [Propylthiouracil],0.955,inactive: 0.941,1.63
CCOC(=O)[C@H](CCc1ccccc1)N[C@H]1CCc2ccccc2N(CC(=O)O)C1=O [Benazepril HCl],1.01,inactive: 0.959,1.33
O=C1OC(CN2CCOCC2)CN1/N=C/c1ccc([N+](=O)[O-])o1 (configuration not stated) [Furaltadone HCl],0.878,inactive: 0.748,0.53
CNC(=O)CN(CCN(CCN(CC(=O)[O-])CC(=O)NC)CC(=O)[O-])CC(=O)[O-].[Gd+3] [Gadodiamide],0.854,inactive: 1.08,0.925
CCCCC(=O)O[C@]1(C(=O)CO)[C@@H](C)C[C@H]2[C@@H]3CCC4=CC(=O)C=C[C@]4(C)[C@@]3(F)[C@@H](O)C[C@@]21C [Betamethasone Valerate],1.37,inactive: 1.63,0.544
Cc1cnc(NC(=O)C2=C(O)c3ccccc3S(=O)(=O)N2C)s1 [Meloxicam (Mobic)],1.01,inactive: 1.31,0.992
C[C@]1(c2nc3c(C(N)=O)cccc3[nH]2)CCCN1 [ABT-888 (Veliparib)],1.05,inactive: 0.665,0.89
c1cn2cc(-c3ccc4cn[nH]c4c3)nc(Nc3ccc(N4CCOCC4)cc3)c2n1,1.05,inactive: 0.935,0.91
CCCCCCCCCCCCCCCC(=O)OCC=C(C)C=CC=C(C)C=CC1=C(C)CCCC1(C)C [Retinyl (Vitamin A) Palmitate],0.957,inactive: 0.725,1.45
Oc1ccc2ccccc2c1 [2-Naphthol],1.04,inactive: 0.81,1.33
CCCc1cc(C(N)=S)ccn1 [Protionamide],1.03,inactive: 0.885,0.849

Structure (SMILES),relative cell viability [1],relative GAG core protein HA-SDC1 amount per cell number [2],relative mutant VPS33A R498W amount [3]
Nc1ccn([C@@H]2O[C@H](CO)[C@@H](O)[C@H]2O)c(=O)n1 [Cytidine],1.05,inactive: 0.92,0.997
C#Cc1cccc(Nc2ncnc3cc(OCCOC)c(OCCOC)cc23)c1 [Erlotinib],1.31,inactive: 0.747,0.514
O=C(NC[C@H](O)CO)c1ccncc1Nc1ccc(I)cc1F,0.951,inactive: 1.12,0.678
CCOC(=O)c1cc(O)c(O)c(O)c1 [Ethyl gallate],0.97,inactive: 0.874,1.18
CC(C)(C)NCC(O)c1cc(O)cc(O)c1 (configuration not stated) [Terbutaline Sulfate],1.19,inactive: 1.31,0.865
CCCNS(=O)(=O)Nc1ncnc(OCCOc2ncc(Br)cn2)c1-c1ccc(Br)cc1 [Macitentan],1.1,inactive: 1.04,0.839
Clc1ccc2nsnc2c1NC1=NCCN1 [Tizanidine],1.36,inactive: 0.855,0.582
NCCCS(=O)(=O)O [Tramiprosate],1.04,inactive: 1.14,1.06
Clc1ccc(C(c2ccccc2Cl)C(Cl)Cl)cc1 (configuration not stated) [Mitotane (Lsodren)],1.04,inactive: 1.2,0.773
OC[C@H]1O[C@@H](O[C@@H]2[C@@H](CO)OC(O)(CO)[C@H]2O)[C@H](O)[C@@H](O)[C@H]1O (mixture of isomers) [Lactulose],0.903,inactive: 0.726,1.28
COc1ccc2cc3[n+](cc2c1OC)CCc1cc2c(cc1-3)OCO2 [Berberine Sulfate],0.539,active: 0.361,2.56
O=c1ccc2ccc(OCCCCN3CCN(c4cccc5sccc45)CC3)cc2[nH]1 [Brexpiprazole],1.4,active: 0.419,0.546
O=C1OC2(c3ccc(O)cc3Oc3cc(O)ccc32)c2ccccc21 [Fluorescein],1.02,inactive: 1.06,1.18
CN1c2cc(O)c(N=NC(N)=O)cc2CC1S(=O)(=O)O (configuration not stated) [Carbazochrome sodium sulfonate (AC-17)],1.09,inactive: 0.871,1.52
COc1ccc(-c2cc(=O)c3c(O)cc(O)cc3o2)cc1O [Diosmetin],1.11,inactive: 0.592,0.944
CC1=C(C(=O)O)N2C(=O)[C@@H](NC(=O)[C@H](N)c3ccc(O)cc3)[C@H]2SC1 [Cefadroxil (hydrate)],1.01,inactive: 0.865,1.41
CN(C)CCCN1c2ccccc2CCc2ccccc21 [Imipramine (hydrochloride)],0.963,inactive: 0.816,0.352
CO[C@H]1C(=O)[C@]2(C)[C@@H](OC)C[C@H]3OC[C@@]3(OC(C)=O)[C@H]2[C@H](OC(=O)c2ccccc2)[C@]2(O)C[C@H](OC(=O)[C@H](O)[C@@H](NC(=O)OC(C)(C)C)c3ccccc3)C(C)=C1C2(C)C [Cabazitaxel],0.521,active: 0.325,0.627
CCN1CCN(c2cc(-c3ccc(F)cc3)c3c(n2)CCCCCC3)CC1 [Blonanserin],1.32,inactive: 0.875,1.18
